Measurements published in article PMC5133542.
These are yes or no findings as the source states them, for the method shown. Binding seen in cells or lysates may run through a third protein. Some results given as binding are weak or reduced against the parent protein; the word gives no strength.

The chains behind the UniProt entries cited, without tags or fusion partners.
UniProt Q9UBF6: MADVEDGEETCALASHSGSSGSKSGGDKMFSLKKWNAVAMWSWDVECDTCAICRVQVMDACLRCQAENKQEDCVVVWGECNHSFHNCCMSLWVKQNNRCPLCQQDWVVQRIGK
UniProt P61077: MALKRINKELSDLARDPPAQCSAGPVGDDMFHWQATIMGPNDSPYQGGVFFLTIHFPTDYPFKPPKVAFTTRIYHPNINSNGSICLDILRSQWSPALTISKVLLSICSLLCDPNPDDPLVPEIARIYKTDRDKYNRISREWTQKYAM
UniProt Q13616: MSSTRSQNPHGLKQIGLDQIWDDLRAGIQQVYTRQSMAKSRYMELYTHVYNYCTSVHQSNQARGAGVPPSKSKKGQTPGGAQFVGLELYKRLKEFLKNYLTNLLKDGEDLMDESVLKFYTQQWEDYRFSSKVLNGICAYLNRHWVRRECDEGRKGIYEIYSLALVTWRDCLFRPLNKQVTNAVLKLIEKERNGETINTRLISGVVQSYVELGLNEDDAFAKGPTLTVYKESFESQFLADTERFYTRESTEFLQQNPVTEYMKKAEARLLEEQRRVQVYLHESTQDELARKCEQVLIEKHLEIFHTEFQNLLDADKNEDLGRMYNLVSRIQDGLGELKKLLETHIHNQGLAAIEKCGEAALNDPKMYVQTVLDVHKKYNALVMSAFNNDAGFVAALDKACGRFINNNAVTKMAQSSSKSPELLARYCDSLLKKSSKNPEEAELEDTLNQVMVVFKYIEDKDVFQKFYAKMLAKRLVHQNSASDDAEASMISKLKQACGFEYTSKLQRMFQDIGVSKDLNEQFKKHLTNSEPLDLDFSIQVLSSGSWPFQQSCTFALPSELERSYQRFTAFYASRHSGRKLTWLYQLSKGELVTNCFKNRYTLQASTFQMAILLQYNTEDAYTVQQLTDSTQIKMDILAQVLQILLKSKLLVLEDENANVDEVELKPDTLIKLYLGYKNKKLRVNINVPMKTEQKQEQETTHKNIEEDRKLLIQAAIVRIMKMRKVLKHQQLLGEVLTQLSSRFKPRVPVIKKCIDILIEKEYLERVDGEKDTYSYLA
UniProt Q93034: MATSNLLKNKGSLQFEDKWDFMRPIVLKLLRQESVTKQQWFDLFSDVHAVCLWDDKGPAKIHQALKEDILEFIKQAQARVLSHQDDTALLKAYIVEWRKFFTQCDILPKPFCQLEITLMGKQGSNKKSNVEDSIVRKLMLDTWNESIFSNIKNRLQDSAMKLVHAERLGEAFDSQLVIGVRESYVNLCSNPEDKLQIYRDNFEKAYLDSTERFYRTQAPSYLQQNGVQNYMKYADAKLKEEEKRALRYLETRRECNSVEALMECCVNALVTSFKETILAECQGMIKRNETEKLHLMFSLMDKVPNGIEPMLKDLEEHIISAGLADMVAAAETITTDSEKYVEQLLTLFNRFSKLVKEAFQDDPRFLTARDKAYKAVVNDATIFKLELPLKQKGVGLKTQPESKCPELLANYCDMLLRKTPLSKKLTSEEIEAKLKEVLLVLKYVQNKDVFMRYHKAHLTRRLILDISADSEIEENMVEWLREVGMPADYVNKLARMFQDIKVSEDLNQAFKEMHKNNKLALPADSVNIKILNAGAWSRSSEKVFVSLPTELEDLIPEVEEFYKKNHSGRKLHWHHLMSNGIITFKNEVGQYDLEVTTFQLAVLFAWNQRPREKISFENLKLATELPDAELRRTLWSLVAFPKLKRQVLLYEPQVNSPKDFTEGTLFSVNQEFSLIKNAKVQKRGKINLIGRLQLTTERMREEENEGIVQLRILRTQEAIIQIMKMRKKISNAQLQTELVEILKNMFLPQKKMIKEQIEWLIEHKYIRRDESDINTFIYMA
UniProt Q16763: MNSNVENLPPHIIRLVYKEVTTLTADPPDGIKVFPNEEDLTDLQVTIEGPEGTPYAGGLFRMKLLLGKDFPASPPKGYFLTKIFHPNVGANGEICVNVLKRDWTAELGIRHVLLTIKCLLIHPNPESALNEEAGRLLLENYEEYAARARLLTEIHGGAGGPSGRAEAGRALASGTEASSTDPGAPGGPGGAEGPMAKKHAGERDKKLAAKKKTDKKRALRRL
UniProt O00762: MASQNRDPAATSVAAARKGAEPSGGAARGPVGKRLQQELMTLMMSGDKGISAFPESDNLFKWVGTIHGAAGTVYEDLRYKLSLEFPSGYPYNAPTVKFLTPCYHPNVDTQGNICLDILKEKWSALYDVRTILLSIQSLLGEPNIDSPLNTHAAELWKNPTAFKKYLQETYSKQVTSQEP
UniProt P49427: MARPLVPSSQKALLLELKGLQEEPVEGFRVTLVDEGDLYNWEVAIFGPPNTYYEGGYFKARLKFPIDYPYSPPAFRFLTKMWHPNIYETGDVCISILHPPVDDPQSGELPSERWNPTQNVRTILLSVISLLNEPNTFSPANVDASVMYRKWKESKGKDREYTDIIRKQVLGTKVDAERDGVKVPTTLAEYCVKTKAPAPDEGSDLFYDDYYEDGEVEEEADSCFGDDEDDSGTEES
UniProt Q9Y297: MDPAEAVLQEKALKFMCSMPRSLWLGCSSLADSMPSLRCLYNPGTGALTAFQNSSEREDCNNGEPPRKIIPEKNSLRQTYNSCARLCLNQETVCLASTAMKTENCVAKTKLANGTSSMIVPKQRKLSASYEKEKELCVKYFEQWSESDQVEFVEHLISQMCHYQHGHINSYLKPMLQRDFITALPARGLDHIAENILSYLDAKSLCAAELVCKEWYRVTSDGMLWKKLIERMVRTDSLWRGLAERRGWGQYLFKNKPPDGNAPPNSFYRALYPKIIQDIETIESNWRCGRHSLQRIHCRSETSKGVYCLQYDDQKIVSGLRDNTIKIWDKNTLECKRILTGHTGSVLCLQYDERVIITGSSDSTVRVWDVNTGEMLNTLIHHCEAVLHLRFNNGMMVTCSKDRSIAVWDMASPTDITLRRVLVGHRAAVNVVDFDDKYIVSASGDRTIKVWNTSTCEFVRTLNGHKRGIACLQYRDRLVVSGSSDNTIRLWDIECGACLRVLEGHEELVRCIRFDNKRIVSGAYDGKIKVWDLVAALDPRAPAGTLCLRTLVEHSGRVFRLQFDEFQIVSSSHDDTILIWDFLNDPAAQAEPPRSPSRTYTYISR

Key:
[1] = target: endogenous SAG/RBX2 (human (endogenous in 293T and A549)) (UniProt Q9UBF6); assay: co-IP; endogenous proteins; A549 cells untreated or treated with 10 μM MG132 for 4 hrs; whole cell extracts immunoprecipitated with antibodies against SAG or β-TrCP, IgG control; immunoblot
FLAG-SAG = FLAG-SAG (UniProt Q9UBF6); assay: co-IP; 293T cells transfected with FLAG-SAG or FLAG-RBX1; IP with FLAG Ab or normal IgG control; immunoblot of endogenous E2s
[2] = target: endogenous UBCH5C (human (endogenous in 293T and A549)) (UniProt P61077); assay: co-IP; endogenous proteins; whole cell extracts of A549 cells (and a second lung cancer cell line), unstressed; IP with antibody against SAG or RBX1 or against each of four E2s; immunoblot
FLAG-tagged CUL1 = FLAG-tagged CUL1 (UniProt Q13616); assay: co-IP; 293T cells transfected with FLAG-tagged CUL1 or CUL5; IP with anti-FLAG Ab or IgG control, protein A&G beads, 4 °C; immunoblot of endogenous proteins
FLAG-tagged CUL5 = FLAG-tagged CUL5 (UniProt Q93034); assay: as above
[3] = target: endogenous UBE2S (human (endogenous in 293T and A549)) (UniProt Q16763); assay: co-IP; endogenous proteins; whole cell extracts of A549 cells (and a second lung cancer cell line), unstressed; IP with antibody against SAG or RBX1 or against each of four E2s; immunoblot
[4] = target: endogenous UBCH10/UBE2C (human (endogenous in 293T and A549)) (UniProt O00762); assay: as above
[5] = target: endogenous SAG/RBX2 (human (endogenous in 293T and A549)) (UniProt Q9UBF6); assay: as above
[6] = target: endogenous CDC34 (human (endogenous in 293T and A549)) (UniProt P49427); assay: as above

Row | binding (FLAG-SAG) | binding [2] | binding [5] | Substance | further results
1 |  |  |  | endogenous CUL5 (from UniProt Q93034 1-780) | binding [1]: binds
2 | no binding | binds |  | endogenous CDC34 (from UniProt P49427 1-236) (enzyme) | 
3 |  | binds weakly |  | endogenous SAG/RBX2 (from UniProt Q9UBF6 1-113) | binding (FLAG-tagged CUL1): binds; binding (FLAG-tagged CUL5): binds; binding [3]: binds; binding [4]: binds
4 |  |  |  | endogenous β-TrCP1 (from UniProt Q9Y297 1-605) | binding (FLAG-tagged CUL1): binds
5 | binds | no binding | binds | endogenous UBCH10/UBE2C (from UniProt O00762 1-179) (enzyme) | binding [6]: no binding
6 | binds |  | binds | endogenous UBE2S (from UniProt Q16763 1-222) (enzyme) | binding [6]: no binding; binding [4]: binds
7 | binds weakly |  | binds weakly | endogenous UBCH5C (from UniProt P61077 1-147) (enzyme) | 
